Reference: paper PMC7819943, “Rice protein-binding microarrays: a tool to detect cis-acting elements near promoter regions in rice”
The other results are listed elsewhere or left out.

Each sequence was assayed against T1, OsWOX13 (Oryza sativa, UniProt Q5QMM3 1-267) (assay: protein-binding microarray (RPBM); PBS, 2% BSA, 51.3 ng/ul salmon testes DNA, 50 uM zinc acetate, 200 nM TF, 25 C, 1 h; high values mean tight binding). Settings: protein: recombinant; tags: N-terminal polyhistidine and DsRed monomer fusion (pET32a); label: CyDye5-dUTP incorporated in the synthesized complementary strand; 3' TTTTT single-stranded linker to array surface; dsDNA, one strand shown.
T1 sequence: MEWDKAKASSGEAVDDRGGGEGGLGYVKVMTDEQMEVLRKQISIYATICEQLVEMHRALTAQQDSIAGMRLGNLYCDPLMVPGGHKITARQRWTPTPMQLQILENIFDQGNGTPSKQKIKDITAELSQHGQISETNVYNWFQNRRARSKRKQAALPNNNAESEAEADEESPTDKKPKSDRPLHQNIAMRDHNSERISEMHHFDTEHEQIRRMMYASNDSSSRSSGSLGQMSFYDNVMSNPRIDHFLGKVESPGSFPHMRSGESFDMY
In short: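 Ni–NTA purification followed expression in E. coli BL21-CodonPlus of transcription factors fused N-terminally to a polyhistidine tag and DsRed. At 200 nM in PBS with 2% BSA, salmon testes DNA and 50 µM zinc acetate, the protein was incubated for 1 h at 25 °C with a custom Agilent array that had been primer-extended with Cy5-dUTP and blocked with 2% BSA. After washing, the array was read on an Axon 4000B scanner. The binding signal is per-feature fluorescence intensity in arbitrary units.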

| Sequence | binding signal |
| --- | --- |
| GGCCATCAATCATGCCTTTAATCGCCTTGAATCGTCGCCTCGGAGTCACCTAGTGCAG | 26200 fluorescence intensity (a.u.) |
| GTGTGTGAAATTGATGTTTTGACTGGAACTTCTCTAGCGTCGGAGTCACCTAGTGCAG | 16400 fluorescence intensity (a.u.) |
| CAAGATTAGAGTGTCATAAAGATGGAAGCACTAATCCCGACGGAGTCACCTAGTGCAG | 4710 fluorescence intensity (a.u.) |
| AGCGCAATTCAATTAATTAACTCAAAATCTAATGAGCACTCGGAGTCACCTAGTGCAG | 20500 fluorescence intensity (a.u.) |
| CCTGATTGCGTGTTGATTTGACAATATGGTGCTACAGTAACGGAGTCACCTAGTGCAG | 54300 fluorescence intensity (a.u.) |
| ACCCGGATGATTGTTTTGGCTTCTGGATTTATCAAATGAACGGAGTCACCTAGTGCAG | 12000 fluorescence intensity (a.u.) |
| CCATGCGGCCTAATTTGTGTCCTCTGATTTCGTAGCAAACCGGAGTCACCTAGTGCAG | 5760 fluorescence intensity (a.u.) |
| CAAGACCAGTCACACATGCTTAATTTGGGTGCACCGTGCACGGAGTCACCTAGTGCAG | 4990 fluorescence intensity (a.u.) |
| ATCATACAATTTTCCAATTAATGGGAAGATGCGATATTTTCGGAGTCACCTAGTGCAG | 13100 fluorescence intensity (a.u.) |
| ATGCTGACTGGGCGAATGACGTGTCCGTTTTCGACAGATCCGGAGTCACCTAGTGCAG | 3990 fluorescence intensity (a.u.) |
| CCCATTATAATTTTCTTTTGTTTCGGGTAGCGGCAGGAGGCGGAGTCACCTAGTGCAG | 4690 fluorescence intensity (a.u.) |
| CAGTTTTCCTTTCAATAATTGAAGGTTCCTTGGTTTTCATCGGAGTCACCTAGTGCAG | 18600 fluorescence intensity (a.u.) |
| TACTCCAGTAACATTTAATGAAATTAACGACGTTTCCTTGCGGAGTCACCTAGTGCAG | 3180 fluorescence intensity (a.u.) |
| ACCTCCTCAATCACACGCACATGTAATAGCTAGTCTAGTGCGGAGTCACCTAGTGCAG | 14900 fluorescence intensity (a.u.) |
| ATTCTAATCAACATCAGCTAGGTAAAATTAAACTTGCCAACGGAGTCACCTAGTGCAG | 9890 fluorescence intensity (a.u.) |
| TTTAATAGGAGTATGTGATAGATCGCTCCATAAACATGCACGGAGTCACCTAGTGCAG | 8780 fluorescence intensity (a.u.) |
| TCCCTGTCCTGACACAGCCTAATTAGGAGATCAAGCTCATCGGAGTCACCTAGTGCAG | 9300 fluorescence intensity (a.u.) |
| CCTAATGAGCAATTGTATGTGCAGTGCAAGGAGCTGAGAACGGAGTCACCTAGTGCAG | 6730 fluorescence intensity (a.u.) |
| TATATGCTATCATTTAATTAAGATTGAATAGTTAGTTTGGCGGAGTCACCTAGTGCAG | 8120 fluorescence intensity (a.u.) |
| AACGTAATTTGGCTCTCGCGTTCCTAACATGCTCTCTCGACGGAGTCACCTAGTGCAG | 6700 fluorescence intensity (a.u.) |
| TATACTGATTATACTGCTAGCTTATCTAGGAGATGCATAGCGGAGTCACCTAGTGCAG | 17500 fluorescence intensity (a.u.) |

| Sequence | binding signal |
| --- | --- |
| TCCCATCTTGATTATTCATATCCCACTACATGTTTCATAGCGGAGTCACCTAGTGCAG | 7720 fluorescence intensity (a.u.) |
| TAATTGCACACTGATTACACTGTAACCAACCAACCAACGACGGAGTCACCTAGTGCAG | 4600 fluorescence intensity (a.u.) |
| TAAATTATTATTATAATAAATAAACGAGGGCCCTCAATGTCGGAGTCACCTAGTGCAG | 7400 fluorescence intensity (a.u.) |
| CGATAACGGCCTCGTCAATTGCATTACGCGAGCCACGAGGCGGAGTCACCTAGTGCAG | 4900 fluorescence intensity (a.u.) |
| ATGATTTTGTTTTGTTTTGCGAATAATTTTGGCGCCTCAACGGAGTCACCTAGTGCAG | 6150 fluorescence intensity (a.u.) |
| TTTCGATTGGATCGGGACAGCAAAGGTTTGGGGATTTGGTCGGAGTCACCTAGTGCAG | 6350 fluorescence intensity (a.u.) |
| GTCTCCCCAATTAATTCCTCTGAACAACTTCCTCGTAGTTCGGAGTCACCTAGTGCAG | 6390 fluorescence intensity (a.u.) |
| GTACAAAATTTAAAATTATGTTATCATTTTAATATATTTTCGGAGTCACCTAGTGCAG | 4960 fluorescence intensity (a.u.) |
| ATGATTGCCATTTGACCTGTAGTACAGATTTAGCACTTGCCGGAGTCACCTAGTGCAG | 47100 fluorescence intensity (a.u.) |
| TACTGTAATAAATCAACAAATAATAATAGTACTAGTAGCACGGAGTCACCTAGTGCAG | 3390 fluorescence intensity (a.u.) |
| AAAATTATCAATAACGGTATTAAAATCAATAGTGTTCAAGCGGAGTCACCTAGTGCAG | 7880 fluorescence intensity (a.u.) |
| TTCACACAAGATTGGCTACATGGGCATCGAGAAATGTAAACGGAGTCACCTAGTGCAG | 3360 fluorescence intensity (a.u.) |
| TCTGACTATTTCCGATCATTTTCATCACTAATCTCACACACGGAGTCACCTAGTGCAG | 4650 fluorescence intensity (a.u.) |
| TAAGCATAATTGCTCCATGATTTGGCAATGTGATGCTACACGGAGTCACCTAGTGCAG | 25200 fluorescence intensity (a.u.) |
| ATCTAAATTATGAGAAATTGTAGTTGTAAAATCCAGAAAACGGAGTCACCTAGTGCAG | 5730 fluorescence intensity (a.u.) |
| CAGCTCATCAAGGTCAAATCAAATCATTCACGTCGTAACGCGGAGTCACCTAGTGCAG | 5060 fluorescence intensity (a.u.) |
| AGGGGATACTTTGTTTTGATTGGATTTGGAACTCGATGACCGGAGTCACCTAGTGCAG | 9790 fluorescence intensity (a.u.) |
| AGACGCGTTTATTTAGTTTAATTAAGGCAAATTATGGATACGGAGTCACCTAGTGCAG | 5770 fluorescence intensity (a.u.) |
| CTTGTTATTGAATAATGGATTAACTAACTAATAACTAACGCGGAGTCACCTAGTGCAG | 12800 fluorescence intensity (a.u.) |
| TATGTACTGATGATTTGGTGATTGATTTCATATCAGCTTTCGGAGTCACCTAGTGCAG | 41700 fluorescence intensity (a.u.) |
| TGTAAACTTAATCACAAACTCCTGGGTTAAGCTCGATCGACGGAGTCACCTAGTGCAG | 3870 fluorescence intensity (a.u.) |
